# Some of the results follow. Interaction screen of human proteins with wild-type SARS-CoV-2 proteins by split-DHFR complementation in yeast, 1 µg/mL methotrexate. Value = fitness of the pair (three or more lineages) minus that of the viral protein without a human partner, on a scale set by negative (0) and fused positive (1) controls, mean of up to three cultures; higher = more likely to interact. Active = false discovery rate below 0.05 (one-sided t-test) in at least one culture. Nearly all pairs are not hits, and differences among them are mostly noise (correlation between cultures about 0.3); most hits were seen in one culture only. Human sequences are the Swiss-Prot entries looked up by gene name; the clone may be another isoform. NSP2 values were corrected by the authors for a growth advantage. Listed are human proteins with a hit and a random twelfth of the others.
# B1: MAB21L3, Q8N8X9 (protein)
# chain: MKYLTVGDLEDCLLNKVDLRRQQISQAVEEVQKVVHHLTTNISNQDIRFQAVPYSDTYNENIKVLAPSQFLVTVPIKGLAGYREAREQHWRYYTLQGTRLPCPLRDPEGLQQWLEVEQFMKSLWQWHETDVNIDGDIVPAKVLLVFRKLVENAVRTCHLSGKVSLLGNRSAVWVAVETSAYQVELELVPAVEIPTTWSKKARWPRCLQRWPSQERVECIKSFGFNLLACSNYHWQLSFLRAEQVLLEQLDEDGGCRRKCFQVMRHLKEDIWCPGNRPVITSHHLQTVLFWTCEKYPHFKDWQVFSKAFLRLVRKLHKCVSQHFLKHYFVRNSNLFQCTNPTELDTVAQKLATFLKNPQIGPP
# B2: MTMR12, Q9C0I1 (protein)
# chain: MLGKGVVGGGGGTKAPKPSFVSYVRPEEIHTNEKEVTEKEVTLHLLPGEQLLCEASTVLKYVQEDSCQHGVYGRLVCTDFKIAFLGDDESALDNDETQFKNKVIGENDITLHCVDQIYGVFDEKKKTLFGQLKKYPEKLIIHCKDLRVFQFCLRYTKEEEVKRIVSGIIHHTQAPKLLKRLFLFSYATAAQNNTVTDPKNHTVMFDTLKDWCWELERTKGNMKYKAVSVNEGYKVCERLPAYFVVPTPLPEENVQRFQGHGIPIWCWSCHNGSALLKMSALPKEQDDGILQIQKSFLDGIYKTIHRPPYEIVKTEDLSSNFLSLQEIQTAYSKFKQLFLIDNSTEFWDTDIKWFSLLESSSWLDIIRRCLKKAIEITECMEAQNMNVLLLEENASDLCCLISSLVQLMMDPHCRTRIGFQSLIQKEWVMGGHCFLDRCNHLRQNDKEEVPVFLLFLDCVWQLVHQHPPAFEFTETYLTVLSDSLYIPIFSTFFFNSPHQKDTNMGREGQDTQSKPLNLLTVWDWSVQFEPKAQTLLKNPLYVEKPKLDKGQRKGMRFKHQRQLSLPLTQSKSSPKRGFFREETDHLIKNLLGKRISKLINSSDELQDNFREFYDSWHSKSTDYHGLLLPHIEGPEIKVWAQRYLRWIPEAQILGGGQVATLSKLLEMMEEVQSLQEKIDERHHSQQAPQAEAPCLLRNSARLSSLFPFALLQRHSSKPVLPTSGWKALGDEDDLAKREDEFVDLGDV
# B3: C17orf64, Q86WR6 (protein)
# chain: MEASDGQGGEGDKPLEQVTNVSCLETSSSASPARDSLMRHAKGLDQDTFKTCKEYLRPLKKFLRKLHLPRDLPQKKKLKYMKQSLVVLGDHINTFLQHYCQAWEIKHWRKMLWRFISLFSELEAKQLRRLYKYTKSSQPAKFLVTFCASDAPERSLLADREDSLPKLCHAWGLHSNISGMKERLSNMQTPGQGSPLPGQPRSQDHVKKDSLRELSQKPKLKRKRIKEAPETPETEP
# B4: PARS2, Q7L3T8 (protein)
# chain: MEGLLTRCRALPALATCSRQLSGYVPCRFHHCAPRRGRRLLLSRVFQPQNLREDRVLSLQDKSDDLTCKSQRLMLQVGLIYPASPGCYHLLPYTVRAMEKLVRVIDQEMQAIGGQKVNMPSLSPAELWQATNRWDLMGKELLRLRDRHGKEYCLGPTHEEAITALIASQKKLSYKQLPFLLYQVTRKFRDEPRPRFGLLRGREFYMKDMYTFDSSPEAAQQTYSLVCDAYCSLFNKLGLPFVKVQADVGTIGGTVSHEFQLPVDIGEDRLAICPRCSFSANMETLDLSQMNCPACQGPLTKTKGIEVGHTFYLGTKYSSIFNAQFTNVCGKPTLAEMGCYGLGVTRILAAAIEVLSTEDCVRWPSLLAPYQACLIPPKKGSKEQAASELIGQLYDHITEAVPQLHGEVLLDDRTHLTIGNRLKDANKFGYPFVIIAGKRALEDPAHFEVWCQNTGEVAFLTKDGVMDLLTPVQTV
# Target: SARS-CoV-2 M
# Experiment: yeast fitness gain over the viral ORF with no human partner (scaled fitness); higher = more likely to interact
# Protocol: (§1)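 Split mouse DHFR complementation in pooled diploid yeast: human ORFeome clones carry one fragment and viral ORFs the other; barcoded lineages compete in 1 µg/mL methotrexate and fitness is read by barcode sequencing in up to three cultures.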
row,Binder,yeast fitness gain
1,B1,inactive: 0.0706
2,B2,inactive: 0.0856
3,B3,inactive: -0.0714
4,B4,inactive: 0.026

# Target: SARS-CoV-2 N
# Experiment: as above
# Protocol: as §1
row,Binder,yeast fitness gain
1,B1,inactive: -0.015
2,B2,inactive: 0.0975
3,B3,inactive: 0.0713
4,B4,inactive: -0.00439

# Target: SARS-CoV-2 NSP1
# Experiment: as above
# Protocol: as §1
row,Binder,yeast fitness gain
1,B1,inactive: 0.0568
2,B2,inactive: 0.013
3,B3,inactive: 0.0486
4,B4,inactive: -0.0474

# Target: SARS-CoV-2 NSP10
# Experiment: as above
# Protocol: as §1
row,Binder,yeast fitness gain
1,B1,inactive: 0.0773
2,B2,inactive: -0.0453
3,B3,inactive: 0.0481
4,B4,inactive: -0.00262

# Target: SARS-CoV-2 NSP12
# Experiment: as above
# Protocol: as §1
row,Binder,yeast fitness gain
1,B1,inactive: -0.0219
2,B2,inactive: 0.0876
3,B3,inactive: -0.0698
4,B4,inactive: 0.0121

# Target: SARS-CoV-2 NSP13
# Experiment: as above
# Protocol: as §1
row,Binder,yeast fitness gain
1,B1,inactive: 0.109
2,B2,inactive: 0.0553
3,B3,inactive: 0.0374
4,B4,inactive: -0.00824

# Target: SARS-CoV-2 NSP14
# Experiment: as above
# Protocol: as §1
row,Binder,yeast fitness gain
1,B1,inactive: 0.0807
2,B2,inactive: 0.00264
3,B3,inactive: -0.117

# Target: SARS-CoV-2 NSP15
# Experiment: as above
# Protocol: as §1
row,Binder,yeast fitness gain
1,B1,inactive: 0.0153
2,B4,inactive: 0.0641

# Target: SARS-CoV-2 NSP16
# Experiment: as above
# Protocol: as §1
row,Binder,yeast fitness gain
1,B1,inactive: 0.00487
2,B3,inactive: 0.114
3,B4,inactive: -0.0848

# Target: SARS-CoV-2 NSP2
# Experiment: as above
# Protocol: as §1
row,Binder,yeast fitness gain
1,B1,inactive: -0.0291
2,B2,inactive: -0.0337
3,B3,inactive: -0.0574
4,B4,inactive: -0.123

# Target: SARS-CoV-2 NSP4
# Experiment: as above
# Protocol: as §1
row,Binder,yeast fitness gain
1,B1,inactive: -0.18
2,B2,inactive: 0.202

# Target: SARS-CoV-2 NSP5
# Experiment: as above
# Protocol: as §1
row,Binder,yeast fitness gain
1,B1,inactive: 0.0148
2,B2,inactive: 0.0516
3,B3,inactive: 0.00611
4,B4,inactive: 0.0566

# Target: SARS-CoV-2 NSP6
# Experiment: as above
# Protocol: as §1
row,Binder,yeast fitness gain
1,B1,inactive: 0.0652
2,B2,inactive: -0.00966
3,B3,inactive: 0.168
4,B4,inactive: 0.0125

# Target: SARS-CoV-2 NSP7
# Experiment: as above
# Protocol: as §1
row,Binder,yeast fitness gain
1,B1,inactive: 0.0171
2,B2,inactive: -0.147
3,B3,inactive: -0.171
4,B4,inactive: -0.0488

# Target: SARS-CoV-2 NSP8
# Experiment: as above
# Protocol: as §1
row,Binder,yeast fitness gain
1,B1,inactive: 0.0122
2,B2,inactive: 0.0902
3,B3,inactive: -0.00742
4,B4,inactive: 0.062

# Target: SARS-CoV-2 ORF10
# Experiment: as above
# Protocol: as §1
row,Binder,yeast fitness gain
1,B1,inactive: 0.112
2,B2,inactive: 0.00987
3,B3,inactive: 0.00391
4,B4,inactive: -0.0176

# Target: SARS-CoV-2 ORF3B
# Experiment: as above
# Protocol: as §1
row,Binder,yeast fitness gain
1,B1,inactive: -0.0495
2,B2,inactive: 0.0635
3,B3,inactive: 0.167
4,B4,inactive: 0.033

# Target: SARS-CoV-2 ORF6
# Experiment: as above
# Protocol: as §1
row,Binder,yeast fitness gain
1,B1,inactive: 0.00389
2,B2,inactive: -0.028
3,B3,inactive: 0.00105
4,B4,inactive: 0.0818

# Target: SARS-CoV-2 ORF7A
# Experiment: as above
# Protocol: as §1
row,Binder,yeast fitness gain
1,B1,inactive: -0.0667
2,B2,inactive: 0.00303
3,B3,inactive: -0.0841
4,B4,inactive: -0.0504

# Target: SARS-CoV-2 ORF7B
# Experiment: as above
# Protocol: as §1
row,Binder,yeast fitness gain
1,B1,inactive: -0.141
2,B2,inactive: -0.0071
3,B3,inactive: -0.0361
4,B4,inactive: 0.036

# Target: SARS-CoV-2 ORF8
# Experiment: as above
# Protocol: as §1
row,Binder,yeast fitness gain
1,B1,inactive: 0.0583
2,B2,inactive: -0.033
3,B3,inactive: -0.0387
4,B4,inactive: -0.0342

# Target: SARS-CoV-2 ORF9B
# Experiment: as above
# Protocol: as §1
row,Binder,yeast fitness gain
1,B1,inactive: -0.0449
2,B2,inactive: -0.0373
3,B3,inactive: -0.0153
4,B4,inactive: -0.0156

# Target: SARS-CoV-2 ORF9Bwu (the 73-codon ORF)
# Experiment: as above
# Protocol: as §1
row,Binder,yeast fitness gain
1,B1,inactive: -0.0897
2,B2,inactive: -0.0105
3,B3,inactive: 0.0212
4,B4,inactive: -0.0567

# Target: SARS-CoV-2 S
# Experiment: as above
# Protocol: as §1
row,Binder,yeast fitness gain
1,B1,inactive: 0.166
2,B2,inactive: 0.141
3,B3,inactive: -0.0447
4,B4,inactive: 0.0267

# Target: SARS-CoV-2 ORF3A
# Experiment: as above
# Protocol: as §1
row,Binder,yeast fitness gain
1,B2,inactive: -0.0275
2,B3,inactive: -0.125
3,B4,inactive: -0.101

# Target: SARS-CoV-2 NSP9
# Experiment: as above
# Protocol: as §1
row,Binder,yeast fitness gain
1,B3,inactive: -0.0065
2,B4,inactive: -0.13

# — the supplement of paper PMC11741623
